Results: article PMC4336329 (PLoS ONE, 2015)
The whole screen tested about 310,000 compounds, of which about 2,200 (0.71%) showed an effect of 50% or more. Effects have a minus sign here. The list shows a part of the results.

Target: human ether-à-go-go-related gene (hERG) potassium channel (human, UniProt Q12809)
Assay: primary screen, population patch clamp on CHO cells stably expressing hERG

Sequence of human ether-à-go-go-related gene (hERG) potassium channel (Q12809 whole entry, looked up): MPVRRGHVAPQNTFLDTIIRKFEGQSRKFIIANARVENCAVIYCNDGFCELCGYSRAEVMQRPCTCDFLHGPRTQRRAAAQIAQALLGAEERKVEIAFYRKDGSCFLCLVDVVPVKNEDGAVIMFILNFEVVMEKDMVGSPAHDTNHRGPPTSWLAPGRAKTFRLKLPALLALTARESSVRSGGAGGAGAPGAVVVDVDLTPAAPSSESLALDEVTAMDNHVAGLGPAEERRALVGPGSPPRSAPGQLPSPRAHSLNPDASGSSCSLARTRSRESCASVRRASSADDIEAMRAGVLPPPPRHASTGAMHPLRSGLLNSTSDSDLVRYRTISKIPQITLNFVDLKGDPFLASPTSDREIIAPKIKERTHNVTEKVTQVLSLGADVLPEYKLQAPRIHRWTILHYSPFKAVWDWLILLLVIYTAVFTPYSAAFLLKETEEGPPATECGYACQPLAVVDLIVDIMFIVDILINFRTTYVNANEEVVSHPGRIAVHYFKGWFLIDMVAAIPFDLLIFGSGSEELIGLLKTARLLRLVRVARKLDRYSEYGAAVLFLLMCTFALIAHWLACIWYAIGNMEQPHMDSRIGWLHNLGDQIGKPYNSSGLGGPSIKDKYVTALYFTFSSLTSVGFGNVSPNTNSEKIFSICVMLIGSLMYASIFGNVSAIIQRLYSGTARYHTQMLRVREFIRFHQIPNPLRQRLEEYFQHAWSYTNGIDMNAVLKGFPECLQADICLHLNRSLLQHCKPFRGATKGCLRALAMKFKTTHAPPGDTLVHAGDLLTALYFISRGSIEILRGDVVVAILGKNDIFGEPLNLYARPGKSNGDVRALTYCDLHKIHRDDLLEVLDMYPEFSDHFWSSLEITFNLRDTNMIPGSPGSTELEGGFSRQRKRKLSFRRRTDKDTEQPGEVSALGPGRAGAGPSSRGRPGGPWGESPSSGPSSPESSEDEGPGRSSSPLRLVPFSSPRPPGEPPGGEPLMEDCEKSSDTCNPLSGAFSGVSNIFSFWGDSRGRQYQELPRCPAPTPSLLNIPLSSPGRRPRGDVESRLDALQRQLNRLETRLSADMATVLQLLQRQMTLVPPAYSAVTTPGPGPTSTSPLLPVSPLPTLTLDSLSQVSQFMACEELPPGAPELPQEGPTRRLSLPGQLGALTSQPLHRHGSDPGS

| Structure (SMILES) | hERG current change (%, negative = inhibition) at 1uM [%] |
| --- | --- |
| CCOc1ccc(NC(=O)Cn2c(=O)oc3cc(Cl)ccc32)cc1 | 12.4 |
| CCCCn1c(SCC2CCCO2)nc2cc(S(N)(=O)=O)ccc21 (stereo not shown) | -9.67 |
| CC1(C)CC(=O)C(C=NCCN2CCN(C(=O)CCl)CC2)=C(O)C1 | 8.35 |
| COc1cc(C(=O)NC(=S)NNC(=O)c2ccc3c(c2)OCO3)cc(OC)c1OC | 6.72 |
| Cc1ccc(/C=C(\C#N)C(=O)Nc2c(C)cccc2C)s1 | 7.54 |
| COC(=O)c1ccc(S(=O)(=O)N2CCN(C(c3ccccc3)c3ccccc3)CC2)n1C | 4.98 |
| CCN(CC(=O)NCc1cccs1)C(=O)COc1ccccc1C#N | 11.6 |
| O=C(CCc1ccccc1)NCc1ccc2c(c1)OCO2 | 8.92 |
| CC(C)Oc1nc(-c2ccccc2Cl)nc2ccccc12 | 27 |
| CCNC(=S)N/N=C/c1cccc(/C=N/NC(=S)NCC)c1 | 13 |
| Cc1ccc(S(=O)(=O)N2CCCC2=O)c(C)c1N(C)S(C)(=O)=O | 16.9 |
| O=C(CCc1nc2ccccc2c(=O)[nH]1)Nc1ccc(F)c([N+](=O)[O-])c1 | 10.2 |
| COc1ccc(C(=O)CSc2nc(SC)ns2)cc1OC | 7.49 |
| CC1CCN(C(=O)c2[nH]cnc2C(=O)Nc2ccc(Cl)cc2)CC1 | 24.6 |
| CC(=O)Nc1ccc(S(=O)(=O)N(C)c2nc3ccccc3nc2Cl)cc1 | 8.12 |
| N#CCCn1cc(C(=O)O)c(-c2cccs2)n1 | 18.4 |
| CCOC(=O)C1=C(O)CCn2c1nc1ccccc12 | 0.404 |
| CCOC(=O)C1=C(C)NC(C)=C(C(=O)OCC)C1c1ccc(Br)o1 | 9.3 |
| CC(C)c1c(C(=O)N/N=C/c2cccc(OCc3ccc(F)cc3)c2)nnn1-c1nonc1N | 25.5 |
| COc1c(/C=C2/C(=O)NC(=O)N(C)C2=O)c(CCN(C)C(=O)c2ccccc2)cc2c1OCO2 | 9.9 |

| Structure (SMILES) | hERG current change (%, negative = inhibition) at 1uM [%] |
| --- | --- |
| O=C(Nc1cccc(O)c1)c1cnn2cccnc12 | -2.94 |
| Cn1cccc1Cc1nnc(SCC(=O)Nc2cccc(Cl)c2)n1-c1ccc(F)cc1 | -10.5 |
| CC(=O)Nc1ccc(NC(=O)C2CCN(C(=O)NC3CCCCC3)CC2)cc1 | 14.4 |
| CSc1nc2ccccc2n1C(=O)Oc1ccccc1 | 3.33 |
| Cc1cc(Br)c(NC(=O)C(C)Sc2nnnn2C)c(Br)c1 (stereo not shown) | 6.21 |
| CCC(c1n[nH]c(=S)n1-c1ccccc1)N(C)C (stereo not shown) | 16.3 |
| CNC(=O)NC(=O)COC(=O)/C=C/c1cccc(Br)c1 | 15.8 |
| CC(=O)Nc1ncnc2c1c(-c1ccc(Cl)cc1)nn2C(C)(C)C | 4.46 |
| COc1c2ccc(C(=O)NCCCCc3ccccc3)cc2nn1C | 4.98 |
| O=P(O)(O)COc1ccccc1O | 11.2 |
| CC12CCC(C(=O)N3CCOCC3)([C@H](Br)C1=O)C2(C)C (stereo partly shown) | 13.5 |
| O=C(Nc1ccc2c(c1)C(=O)N(CC1CCCO1)C2=O)c1ccc(Cl)c(Cl)c1 (stereo not shown) | -14.9 |
| CC1=CCC(C(=O)O)C(C(=O)NC2CCCCC2)C1 (stereo not shown) | 12.2 |
| CCOc1ccccc1Oc1coc2cc(OC(=O)N(C)C)ccc2c1=O | 13.4 |
| O=C(NCCN1CCOCC1)c1cc(Sc2cccc(Cl)c2)nc2ccccc12 | -20.6 |
| CN(Cc1cccs1)C(=O)Cn1cnc2cc([N+](=O)[O-])ccc2c1=O | 16.1 |
| O=C(Cc1cnc2ncnn2c1)N1CCc2c([nH]c3ccccc23)C1c1ccccn1 (stereo not shown) | 6.54 |
| COc1cc(NC(=O)c2ccc3c(c2)OCCO3)ccc1NC(=O)c1cccs1 | 4.39 |
| O=C(CN1CCN(c2ccccc2)CC1)Nc1ccc(OCc2ccccc2)cc1 | 13.4 |
| Cc1cccc(N(Cc2ccccc2)C(=O)c2cccc(S(=O)(=O)N3CC(C)OC(C)C3)c2)c1 (stereo not shown) | -3.52 |

| Structure (SMILES) | hERG current change (%, negative = inhibition) at 1uM [%] |
| --- | --- |
| Cc1cccn2c(CN(C)CC3Cc4ccccc4O3)c(C(=O)N3CCCCC3)nc12 (stereo not shown) | 4.15 |
| COc1ccc(NC(=O)C2=NNC(=O)CC2)cc1S(=O)(=O)N1CCCCC1 | 2.96 |
| Cc1csc2nc(CNS(=O)(=O)N(C)C)cn12 | 4.85 |
| Cc1cccc(C(=O)N/N=C/c2ccc[nH]2)c1 | 15.2 |
| CC(C)c1ccc(C2CC(c3ccc(Br)cc3)=NN2C(N)=S)cc1 (stereo not shown) | 17.3 |
| O=C(Nc1ccc(NC(=O)c2ccco2)cc1)c1ccco1 | 12.7 |
| CC1(C)CCCC2=C1CC1C(=O)N(N)C(=O)C1C2 (stereo not shown) | 9.08 |
| CSc1nc(N(C)C)nc(N(C)C#N)n1 | 18.4 |
| O=C(c1ccccc1)N1CCCCC(Sc2nnnn2-c2ccccc2)C1=O (stereo not shown) | -3.02 |
| CC(=O)Nc1ccc(Oc2ccccc2)cc1 | 8.93 |
| Cc1sc(NC(=O)c2sc3nc4c(C)cccc4cc3c2N)c(C#N)c1C | 13.2 |
| CC(NS(=O)(=O)c1ccccc1)C(=O)Nc1ccc(S(N)(=O)=O)cc1 (stereo not shown) | 9.55 |
| CN1CCN(S(=O)(=O)c2ccc(NC(=O)c3ccc([N+](=O)[O-])cc3)cc2)CC1 | -5.24 |
| COc1ccc(NC(=O)Nc2ccc3nccnc3c2)cc1 | 6.75 |
| O=C(O)C(Cc1ccccc1-c1ccccc1)C(=O)O | 7.65 |
| N#Cc1ccc(-c2nnnn2-c2ccc3c(c2)OCO3)cc1 | -1.99 |
| Cc1cc(OCC(O)CN2CCc3ccccc3C2)ccc1Cl.Cl (stereo not shown) | 3.92 |
| CCN1C(=O)N[C@H](c2ccccc2)C(C(C)=O)=C1C | 16.4 |
